The source of these data is ChEMBL document CHEMBL1201862, “PubChem BioAssay data set” (2004).

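The compound was tested at five concentrations on cells cultured in 96-well plates, with a 48-hour exposure period. GI50 marks 50% less growth.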 Active and inactive are the calls of the source. No stated cut-off is given here; in the data, active = GI50 up to about 1.1 µM and inactive = higher.

For the test, the system named is NCI-H322M. In words: growth of human tumour cells (NCI), 48 h.
`CN(C)c1ccc(/C=c2\c3ccccc3n3c2cc(-c2ccccc2)[n+]3C)cc1`: the GI50 is active: 0.473 µM. Then `O=C(/C=C/c1ccccc1)c1ccc(Cl)cc1Cl`, with inactive: 34.9 µM; and `CCOc1ccc2c(ccc(/C=C/c3cc(C)c4cccnc4c3O)[n+]2C)c1`, with inactive: 1.26 µM. On to `COc1cc(C2C3=C(COC3=O)OC(C)(C)Oc3cc4c(cc32)OCO4)cc(OC)c1OC` (configuration not stated), for which the GI50 is active: 0.486 µM. With `Oc1nnc(-c2ccc(F)cc2)cc1-c1ccccc1`, the GI50 was inactive: > 100 µM. On to `CCOP(=O)(OCC)C(Cc1ccccc1)N=C(c1ccccc1)c1ccccc1` (configuration not stated), for which the GI50 is inactive: 14.5 µM. Take `CCN(CC)c1ccc(/C=C/c2ccnc3ccccc23)cc1`: the GI50 was inactive: > 100 µM.

In the case of `COc1ccc(/N=C\c2ccc(N(CCC#N)CCC#N)cc2)cc1`, the GI50 is inactive: > 75.5 µM. On to `CC(=O)N(C)C(C(=O)N1CC(C)CC1C(=O)N(C)C1C(=O)NC(CC(C)C)C(=O)N2CC(C)CC2C(=O)NC(CC(C)C)C(=O)N(C)C(C(C)C)C(=O)N2CCCC2C(=O)N(C)C(CC(C)C)C(=O)NCC(=O)OC1C)C(C)C` (configuration not stated), for which the GI50 was inactive: > 100 µM. Take `CCOC(=O)/C(C(=O)Nc1cccc(C(F)(F)F)c1)=C(/N)N1CCCC1`: the GI50 is inactive: 79.3 µM. Regarding `COc1c(-c2nc3ccc(N4CCN(C)CC4)nc3[nH]2)cc(OC)c2[nH]c(CO)nc12`, the GI50 was inactive: 48.3 µM. In the case of `FC(F)(Sc1ccccn1)c1nc2ccccc2o1`, the GI50 was inactive: > 100 µM. On to `CC1=NN2C(=N)/C(=C/c3ccc(F)cc3)C(=O)N=C2S1`, for which the GI50 was inactive: > 100 µM. Turning to `O=C1/C(=C/c2cccs2)NC(=S)N1CN1CCCCC1`, the GI50 is inactive: > 100 µM. For the compound `C/N=C(\SC)N(C)c1nc(=[N+](C)C)ss1.[O-][Cl+3]([O-])([O-])[O-]`, the GI50 is inactive: > 100 µM. For the compound `Cc1ccc(Cl)c2[nH]c(-c3ccccc3)cc(=O)c12`, the GI50 is inactive: 28.7 µM. In the case of `O=C1CN(c2cccc(Cl)c2)C(=O)CN1CCN1CC(=O)N(c2cccc(Cl)c2)CC1=O`, the GI50 is inactive: > 100 µM. `COc1ccc(N2C(=O)/C(=C(\C)c3cc4ccccc4oc3=O)N=C2c2cc([N+](=O)[O-])ccc2Cl)cc1`: the GI50 is inactive: > 100 µM. With `CCOc1ncn(-c2ccc(NC(=S)NC34CC5CC(CC(C5)C3)C4)cc2)n1` the figure was inactive: > 100 µM; with `C/N=C(\N)N/N=C(\C)c1ccc2oc3ccc(/C(C)=N/N/C(N)=N/C)cc3c2c1`, inactive: 2.42 µM; with `CC1=C(O)C(=O)C2C(=O)C1C1Cc3ccccc3C21` (configuration not stated), inactive: > 100 µM. As for `C(=N\N=C1NCCCN1)/c1ccc2ccccc2c1`, the GI50 is inactive: 15.7 µM. With `Nn1c(=O)n(Cc2ccccc2)n(-c2ccccc2)c1=O` the figure was inactive: > 100 µM; with `O[C@@H]1C[C@@H]2N[C@@](O)(C[C@@H]2O)[C@H]1O`, inactive: > 100 µM; with `O=C(/C=C1/NC(=O)CS1)Nc1ccccc1`, inactive: 36.1 µM. On to `CCC1CCC2CCCC(C)N12` (configuration not stated), for which the GI50 is inactive: > 100 µM. As to `C=C(C)C1CC2C(C)=C(OC(C)=O)C1n1c(=O)c3cc4ccccc4cc3c(=O)n12` (configuration not stated), the GI50 was inactive: > 65.5 µM.

Consider `CC(C)=Cc1cc(C(=O)Nc2ccc(Cl)c(Cl)c2)nc(N)n1`, for which the GI50 is inactive: > 100 µM. As to `C/C(=N\NC(N)=S)c1ccc2c(c1)OCO2`, the GI50 was inactive: > 100 µM.

As for `CN1CCN(c2cc3c(cc2F)c(=O)c(C(=O)O)cn3C2CC2)CC1CC#N` (configuration not stated), the GI50 was inactive: > 100 µM.

Regarding `COC1OC2COC(c3ccccc3)OC2C(O)C1OC(=S)c1ccccc1` (configuration not stated), the GI50 was inactive: 40.7 µM. Turning to `O=C(CC1S/C(=N\c2ccccc2Cl)NC1=O)Nc1ccc(Cl)cc1` (configuration not stated), the GI50 is inactive: > 100 µM. `CC(SC(=S)N1CCOCC1)C(=O)Nc1nnc(-c2ccccc2)o1` (configuration not stated): the GI50 was inactive: > 100 µM. With `O=C(N[C@@H](c1ccccc1)[C@@H](O)C(=O)OCc1ccc2c(c1)OCO2)c1ccccc1`, the GI50 was inactive: > 100 µM. For the compound `C=C(C)C12CC3CC/C(=N/O)C(C1)C3(N1CCOCC1)C/C2=N/O` (configuration not stated), the GI50 was inactive: > 100 µM. With `CC(=O)CNC(=O)OC(C)(C)C` the figure was inactive: > 100 µM; with `Cc1ccc(F)c2c(=O)cc(-c3ccccc3)[nH]c12`, inactive: > 100 µM. As to `CCOC(=O)Nc1ccc(C)c(NC(=O)OCC)c1`, the GI50 is inactive: > 100 µM. In the case of `N#CC(C#N)=C1SC(=N\c2ccccc2)/C(=N/c2ccccc2)N1c1ccccc1`, the GI50 is inactive: 53.8 µM. Consider `CCCCOP(C)(=O)C(NC(=O)OCC)(C(F)(F)F)C(F)(F)F` (configuration not stated), for which the GI50 is inactive: > 100 µM.

For the compound `COC(=O)[C@]1(c2ccc(N(C)C)cc2OC)C[C@@H]2CCCN(CCc3c1[nH]c1ccccc31)C2`, the GI50 is inactive: 29.4 µM.

For the compound `Cn1c(=O)c2nc(N3CCOCC3)cnc2n(C)c1=O`, the GI50 was inactive: > 100 µM. `O=C(Nc1cccc2ccccc12)Nn1cnnc1`: the GI50 is inactive: > 100 µM. Then `O=C1c2c(O)cccc2C(C(=O)CCCC(=O)C2c3cccc(O)c3C(=O)c3c(O)cccc32)c2cccc(O)c21`, with active: 0.935 µM; and `N#CC(/C(=N/NC(N)=S)C(=O)Nc1cccc(Cl)c1)c1ccccc1` (configuration not stated), with inactive: > 100 µM.

With `NS(=O)(=O)c1nnc(NS(=O)(=O)c2ccc(Cl)cc2)s1`, the GI50 is inactive: > 100 µM. With `COC(=O)C1=C(C)NC2(C)OC(C)(O)C(C(C)=O)C12C(C)=O` (configuration not stated), the GI50 was inactive: > 100 µM.

On to `CC1(C(=O)NCCN(CCNC(=O)C2(C)CC3(C)CC(C)(C2)C(=O)NC3=O)CCNC(=O)C2(C)CC3(C)CC(C)(C2)C(=O)NC3=O)CC2(C)CC(C)(C1)C(=O)NC2=O` (configuration not stated), for which the GI50 is inactive: > 100 µM.

For the compound `COC(=O)C1=C(C)NC(C)=C([N+](=O)[O-])C1c1cccc(N=O)c1` (configuration not stated), the GI50 was inactive: 33.9 µM. As to `COc1ccc(S(=O)(=O)Nc2ccc(-c3csc(N4C(=O)/C(=C/c5cccs5)N=C4c4ccccc4)n3)cc2)cc1Cl`, the GI50 is inactive: > 100 µM. Take `COc1ccccc1-c1c(C#N)c(N)[nH]c(=S)c1C#N`: the GI50 is inactive: 92.3 µM. Take `Cc1cc2c(c3oc(C(O)(CO)C4CO4)cc(=O)c13)C(=O)c1c(O)cccc1C2=O` (configuration not stated): the GI50 is active: 0.000843 µM. As to `CCOC(=O)NC(=O)c1cn(CCOC(=O)NCCCCCCNC(=O)OCCn2cc(C(=O)NC(=O)OCC)c(=O)[nH]c2=O)c(=O)[nH]c1=O`, the GI50 was inactive: > 100 µM. Take `Cc1ccc(C(=C2Sc3ccccc3S2)C(=C2Sc3ccccc3S2)c2ccc(C)s2)s1`: the GI50 is inactive: > 100 µM. As for `COC1OC(CO)C(O)C(OC(C)=O)C1NC(=O)N(CCCl)N=O` (configuration not stated), the GI50 was inactive: > 100 µM. `N/N=C1\C(OC(=O)Nc2ccccc2)=Nc2ccccc21`: the GI50 was inactive: 27.2 µM. Regarding `N#CCN(CC#N)C1CC=CCC1N(CC#N)CC#N` (configuration not stated), the GI50 was inactive: > 100 µM. With `CC1=C(c2cc(C(=O)Nc3ccc(Cl)c(Cl)c3)nc(N)n2)Sc2ccccc2N1` the figure was inactive: > 100 µM; with `Cn1c(=O)c2c(nc3n(CCCCl)c(=O)ccn23)n(C)c1=O`, inactive: > 100 µM. Take `O=C(CCCN1CCC2(CC1)CC(=O)N(N1CCCCCC1)C2=O)c1ccc(F)cc1`: the GI50 was inactive: > 100 µM. For the compound `O=C(/C=C/c1cccc(Br)c1)N1CCN(CCOC(c2ccccc2)c2ccccc2)CC1`, the GI50 was inactive: > 100 µM. For the compound `O=C(N/N=C\c1cccc2ccccc12)Nc1ccc([N+](=O)[O-])cc1`, the GI50 was inactive: 14.1 µM. With `COC1/C=C/OC2(C)Oc3c(C)c(O)c4c(c3C2=O)C(=O)C=C(NC(=O)/C(C)=C\C=C\C(C)C(OC=O)C(C)C(O)C(C)C(OC(C)=O)C1C)C4=O` (configuration not stated), the GI50 is inactive: 20.6 µM. In the case of `Cc1ccc(S(=O)(=O)N2CCN(CCN(C)CCN3CCN(S(=O)(=O)c4ccc(C)cc4)CC3)CC2)cc1`, the GI50 was inactive: 15.3 µM. As to `O=[N+]([O-])/C(C(Cl)=C(Cl)Cl)=C1/OCCS1`, the GI50 is inactive: 59.7 µM. On to `CC(C)(C)OC(=O)NC1CCCC1C(=O)C1=CCCC1` (configuration not stated), for which the GI50 was inactive: > 100 µM. Turning to `COc1c2c(cc3occ(-c4ccc(CC=C(C)C)cc4)c(=O)c13)OC(C)(C)C=C2`, the GI50 is inactive: > 100 µM. For the compound `COC(=O)C12OC(C)(C(CC(=O)OC(C)(C)C)C1=O)C1C(=O)N(c3ccccc3)C(=O)C12` (configuration not stated), the GI50 is inactive: > 100 µM.

On to `Cc1cn(C2CC(O)C(Cn3nncc3Cn3nc(Br)c(=O)[nH]c3=O)O2)c(=O)[nH]c1=O` (configuration not stated), for which the GI50 was inactive: > 100 µM.

For the compound `CSC(=S)Nc1cc(C)ccn1`, the GI50 is inactive: > 100 µM. For `COC(=O)C(=O)C(C(=O)C=C(C)C)C(=O)C(=O)Nc1ccc(C)cc1C` (configuration not stated), the GI50 is inactive: > 100 µM.

As to `C[C@]12CC[C@@H]3c4cc(Br)c(O)c(Br)c4CC[C@H]3[C@@H]1CC(Br)C2=O` (some centres not stated), the GI50 was inactive: 13.4 µM. As for `[N-]=[N+]=CC(=O)OCC1SCCCS1`, the GI50 was inactive: > 100 µM. Then `COc1ccc(C(C#N)NC23CC4CC(CC(C4)C2)C3)cc1` (configuration not stated), with inactive: > 100 µM; and `C[C@@H]1C(O)CC[C@H](C)C12CC=CC2=O` (some centres not stated), with inactive: 68.1 µM; and `NC(Cc1ccc(CP(=O)(O)O)cc1)C(=O)O` (configuration not stated), with inactive: > 100 µM. In the case of `Cc1c2cc[n+](C)c(C)c2cc2c1[nH]c1ccccc12`, the GI50 is inactive: 3.86 µM.

For `CN(C)CCNc1ccc([N+](=O)[O-])c2sc3ccccc3c(=O)c12`, the GI50 is inactive: 4.36 µM.

Regarding `COc1cccc(-c2nc(O)c3ccccc3n2)c1OC`, the GI50 was inactive: > 100 µM. For the compound `O=C1CCCCC/C1=C\c1ccc(F)cc1`, the GI50 was inactive: > 100 µM.

With `O=[N+]([O-])c1cccc(Nc2nc(Cl)nc(Cl)n2)c1`, the GI50 was inactive: > 100 µM. `Cn1cnc([N+](=O)[O-])c1Sc1nc2cc(Cl)c(F)cc2[nH]1`: the GI50 is inactive: 17.6 µM.
